Measured values from patent US20250170127A1, “RE-SENSITIZING MULTIDRUG-RESISTANT (MDR) GRAM-NEGATIVE BACTERIA TO COLISTIN USING IONOPHORES” (The Regents of the University of Colorado, a body corporate, priority 2022, published 2025).
At least one read-out could not be matched to a standard name with certainty.

The molecules below were run on E. coli AR-0493 (assay: Minimum re-sensitizing concentration (MRC) in the presence of colistin). Conditions: in the presence of 2 μg/mL colistin.
Assay type: cell-based
Procedure: These 10 compounds were tested for their MICs and minimum re-sensitizing concentrations (MRCs) in the presence colistin at 2 μg/mL in E. coli AR-0493.
The present inventors further conducted MRC screens of selected compounds from groups 2-5 in AR-0493. Compound were tested against AR-0493 with compound X+2 μg/mL Colistin.
All compounds were tested for their respective minimum resensitizing concentrations (MRCs) for colistin against E. coli. AR0493, a MDR strain from CDC and FDA Antibiotic Resistance Bank. […] For the symmetrical bisanilino series, 7a-p, electron-donating alkyl and alkoxy groups (entries 7a-g, Table 5) at various positions of the phenyl rings were investigated. […] Three asymmetric bisanilino analogs (7q-s, Table 5) were synthesized based on the SARs of the monoanilino analogs 8a-p (vide infra).
General Methods. MDR strains E. coli AR-0493, AR-0346, and AR-0538, Salmonella Enteritidis AR-0496, Salmonella Typhimurium AR-0635, K. pneumoniae AR-0497, A. baumannii AR-0300 and AR-0310 were all obtained from the CDC & FDA Antibiotic Resistance Isolate Bank. E. coli K-12 was a gift from the Copley lab (Department of MCD Biology, University of Colorado Boulder). HeLa cells were purchased from the ATCC. All bacterial strains were grown on trypticase soy agar supplemented with 5% sheep blood (BAP). Bacteria were then cultured in Luria-Bertani (LB) medium at 35° C. until they achieve the log phase before screening or antimicrobial testing using CAMHB media. MIC, MRC, and checkerboard analyses and mammalian growth inhibition analyses in Hela cells were performed as described previously. More details are given in Supporting information.

SMILES | MRC (minimum re-sensitizing concentration)
Cc1ccccc1Nc1nc2nonc2nc1Nc1ccccc1C [Compound 2b] | > 128 µg/mL
COc1ccccc1Nc1nc2nonc2nc1Nc1ccccc1OC [Compound 2e] | >16 µg/mL
COc1cccc(Nc2nc3nonc3nc2Nc2cccc(OC)c2)c1 [Compound 2f] | 4 µg/mL
COc1ccc(Nc2nc3nonc3nc2Nc2ccc(OC)cc2)cc1 [Compound 2g] | >16 µg/mL
Clc1ccc(Nc2nc3nonc3nc2Nc2ccc(Cl)cc2)cc1 [Compound 2i] | 0.25 µg/mL
FC(F)(F)Oc1ccccc1Nc1nc2nonc2nc1Nc1ccccc1OC(F)(F)F [Compound 2k] | 0.125 to 0.25 µg/mL
FC(F)(F)Oc1cccc(Nc2nc3nonc3nc2Nc2cccc(OC(F)(F)F)c2)c1 [Compound 2l] | >16 µg/mL
Oc1nc2nonc2nc1Nc1ccccc1 [Compound 3a] | >16 µg/mL
Cc1ccccc1Nc1nc2nonc2nc1O [Compound 3b] | >16 µg/mL
COc1ccc(Nc2nc3nonc3nc2O)cc1 [Compound 3g] | >16 µg/mL
Oc1nc2nonc2nc1Nc1cccc(Cl)c1 [Compound 3i] | 8 µg/mL
COc1ccccc1Nc1nc2nonc2nc1Nc1cccc(OC(F)(F)F)c1 [Compound 3j] | >16 µg/mL
Oc1nc2nonc2nc1Nc1ccccc1F [Compound 3k] | >16 µg/mL
Oc1nc2nonc2nc1Nc1cccc(F)c1 [Compound 3l] | >16 µg/mL
Oc1nc2nonc2nc1Nc1ccc(F)cc1 [Compound 3m] | >16 µg/mL
Oc1nc2nonc2nc1Nc1cccc(C(F)(F)F)c1 [Compound 3p] | >16 µg/mL
Oc1nc2nonc2nc1Nc1ccccc1OC(F)(F)F [Compound 3q] | >16 µg/mL
Oc1nc2nonc2nc1Nc1ccc(OC(F)(F)F)cc1 [Compound 3s] | >16 µg/mL

SMILES | MRC (minimum re-sensitizing concentration)
Nc1nc2nonc2nc1Nc1ccc(OC(F)(F)F)cc1 [Compound 4a] | >16 µg/mL
ONc1nc2nonc2nc1Nc1ccc(OC(F)(F)F)cc1 [Compound 4b] | >16 µg/mL
OCCNc1nc2nonc2nc1Nc1ccc(OC(F)(F)F)cc1 [Compound 4c] | 4 µg/mL
CC(=O)Nc1nc2nonc2nc1Nc1ccc(OC(F)(F)F)cc1 [Compound 4d] | 16 µg/mL
OCCCNc1nc2nonc2nc1Nc1cccc(OC(F)(F)F)c1 [Compound 5c] | 8 µg/mL
Clc1cccc(Nc2nc3nonc3nc2NCCc2ccccc2)c1 [LH-149] | 0.5 µg/mL
FC(F)(F)c1nc(NCCCNc2nc3nonc3nc2Nc2cccc(Cl)c2)ccc1Cl [LH-151] | 0.5 µg/mL
O=C1OC2(c3ccc(O)cc3Oc3cc(O)ccc32)c2ccc(NC(=S)NCCCNc3nc4nonc4nc3Nc3cccc(Cl)c3)cc21 [NZL-Fluorescence] | 16 µg/mL
C1=CC2=C3C(=CC=C4C=CC(Nc5nc6nonc6nc5NC5CCCC5)=C(C=C2)C43)C1 (stereo not drawn) [SD_2_108] | 8 µg/mL
CCCCCNc1nc2nonc2nc1Nc1cccc(Cl)c1 [SD_2_109] | 0.5 µg/mL
FC(F)(F)c1ccc(Nc2nc3nonc3nc2NC2CCCC2)cc1 [SD_2_131] | 0.25 µg/mL
FC(F)(F)c1cccc(Nc2nc3nonc3nc2NC2CC2)c1 [SD_2_132] | 1 µg/mL
CC(C)(C)OC(=O)N1CC(CNc2nc3nonc3nc2Nc2cccc(Cl)c2)C1 [SD_2_200] | 4 µg/mL
O=C(Nc1nc2nonc2nc1Nc1cccc(Cl)c1)c1cccc(Cl)c1 [SD_2_246] | 4 µg/mL
CC(C)(C)OC(=O)NCCNc1nc2nonc2nc1Nc1cccc(Cl)c1 [SD_2_249] | 4 µg/mL
Clc1cccc(Nc2nc3nonc3nc2NCCN2Cc3ccccc3C2)c1 [SD_2_264] | 2 µg/mL
Clc1ccc(CNc2nc3nonc3nc2Nc2cccc(Cl)c2)cc1 [TW-184] | 0.5 µg/mL
FC(F)CNc1nc2nonc2nc1Nc1cccc(Cl)c1 [TW-190] | 2 µg/mL
